Data taken from PubChem BioAssay AID1645852 (National Center for Advancing Translational Sciences (NCATS), 2021).
In all, about 1,200 compounds went through this assay and about 160 (13%) were called active. The shares of active, inactive and inconclusive entries below differ from those in the screen. Calls follow the shape of the dose curve; as a rule, active = well fitted inhibition curve with a large enough effect; inconclusive = small, poorly fitted or top-dose-only effect; inactive = no such curve, though single readings can be large or run the other way. Potencies beside an inconclusive call are fits to weak or partial responses and may not hold up.

Molecular target: Inositol hexakisphosphate kinase 1 (Homo sapiens) (UniProt Q92551)
Sequence of UniProt Q92551 (Q92551 whole entry, looked up): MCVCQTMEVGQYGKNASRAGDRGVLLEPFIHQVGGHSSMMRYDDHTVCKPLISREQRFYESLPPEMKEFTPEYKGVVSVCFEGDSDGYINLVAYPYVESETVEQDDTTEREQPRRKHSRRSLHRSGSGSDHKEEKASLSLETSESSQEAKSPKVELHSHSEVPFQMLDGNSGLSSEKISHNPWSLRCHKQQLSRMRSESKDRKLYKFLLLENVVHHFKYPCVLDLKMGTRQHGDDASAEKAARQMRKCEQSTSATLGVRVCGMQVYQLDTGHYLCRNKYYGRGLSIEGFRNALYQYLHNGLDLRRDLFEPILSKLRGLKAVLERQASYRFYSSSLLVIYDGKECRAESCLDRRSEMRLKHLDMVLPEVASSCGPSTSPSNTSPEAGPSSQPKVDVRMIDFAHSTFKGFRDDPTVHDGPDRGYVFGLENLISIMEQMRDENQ
Assay: Confirmatory qHTS assay for small molecule inhibitors of Inositol hexaphosphate kinase 1 (IP6K1); also: nearly all actives have a fitted effect of over 65% in size
Conditions: recombinant IP6K1 kinase, ADP-Glo luminescence, 2 h; series mostly up to 49 µM
Description: Assay Provider: Huijun Wei, M.S., Ph.D. School of Medicine, Johns Hopkins University, Baltimore, MD Inositol hexakisphosphate kinases (IP6Ks) catalyze pyrophosphorylation of inositol hexakisphosphate (IP6) into inositol 5-diphospho-1,2,3,4,6-pentakisphosphate (IP7), which is involved in numerous areas of cell physiology including glucose homeostasis, blood coagulation and neurological development. Inhibition of IP6Ks may be effective for the treatment of Type II diabetes, thrombosis, and psychiatric disorders. We performed a quantitative high throughput screen (qHTS) of 158,410 compounds for IP6K1 inhibitors using ankinase activity ADP-Glo Max assay. […] Medicinal chemistry SAR efforts in three chemical series identified potent IP6K1 inhibitors, which were further validated in an orthogonal LC-MS IP7 analysis.
PROTOCOL TABLE SEQUENCE No. (e.g., 1, 2, 3, etc.); […] (e.g., Cells, Incubation, Reagent, etc.); VALUE and DESCRIPTION. 1. Reagent, 3 uL of 1.3 mM ATP and 130 uM IP6 mixture in assay buffer was dispensed to a white, 1536-well assay plate. 2. Compound, 23 nL of compounds of the top two doses (57.5 uM and 19.1 uM final concentration) of the libraries were dispensed into the mixture using the Kalypsis pintool. 3. Reagent, 1 uL of 2.4 uM IP6K1 was dispensed to the assay plates. 4. Incubation, 2 hr incubation at room temperature. 5. Reagent, 2 uL of ADP-Glo reagent was added to the wells. 6. Incubation, 1 hr incubation at room temperature. 7. Reagent, 4 uL or ADP-Glo substate was added to the wells. 8. Incubation, 45 min incubation at room temperature. 9. Detection, luminescence signal was detected using the ViewLux microplate imager (PerkinElmer).
Potency is read from the fitted curve at half-maximal effect; tags tell the direction and shape of the fitted curve.

Structure (SMILES)	Potency
CCN1CCN(C(=O)Cc2ccc(Nc3ncc(F)c(Nc4ccc(C(=O)Nc5ccccc5Cl)cc4)n3)cc2)CC1	inconclusive: 11.6 µM [inhibitor, partial curve]
COc1cc2c(cc1OC1CCCC1)NC(=O)C21CCN(c2cnccn2)CC1	inactive
O=C1Nc2ccccc2C12CCN(Cc1ccc(C(F)(F)F)cc1)CC2	inconclusive: 8.2 µM [inhibitor, partial curve]
CN1CCN(C(=O)Cc2c[nH]c3ncc(-c4ccc5c(c4)OCO5)cc23)CC1	inconclusive: 29.8 µM [inhibitor, partial curve]
CC[C@]1(O)CC[C@H]2[C@@H]3CCC4=CCCC[C@@H]4[C@H]3CC[C@@]21C	inconclusive: 9.2 µM [inhibitor, partial curve]
CN1CCN(C(=O)Cc2c[nH]c3ncc(-c4cccc(OC(F)(F)F)c4)cc23)CC1	inconclusive: 29.8 µM [inhibitor, partial curve]
N#Cc1nn(-c2c(Cl)cc(C(F)(F)F)cc2Cl)c(N)c1S(=O)C(F)(F)F (stereo not drawn)	inconclusive: 14.6 µM [inhibitor, partial curve, poor fit]
CCOC(=O)CC(SP(=S)(OC)OC)C(=O)OCC (stereo not drawn)	active: 17.8 µM
O=C1OC(c2ccc(O)c(S(=O)(=O)O)c2)(c2ccc(O)c(S(=O)(=O)O)c2)c2c(Br)c(Br)c(Br)c(Br)c21	active: 20.6 µM
COc1nn(CSP(=S)(OC)OC)c(=O)s1	active: 10 µM
COc1cc2c(cc1OCC1CC1)NC(=O)C21CCN(C(=O)c2cccc(C#N)c2)CC1	inactive
CCCCCOc1cc2c(cc1-c1cc(/C=C/C(=O)O)ccc1O)C(C)(C)CCC2(C)C	inconclusive: 13 µM [inhibitor, partial curve]
COc1cc2c(cc1OCc1ccccc1)NC(=O)C21CCN(c2cnccn2)CC1	inconclusive: 10.6 µM [inhibitor, partial curve, poor fit]
O=C(Nc1ccc(Br)cc1)c1cc(Br)cc(Br)c1O	active: 23.1 µM
CC(=O)[O][Hg][c]1ccccc1	active: 0.651 µM
Cc1ccc([N+](=O)[O-])[c]2c1[O][Hg]2	active: 1.03 µM
CC12Cc3cn[nH]c3C=C1CCC1C2CCC2(C)C1CCC2(C)O (stereo not drawn)	active: 7.31 µM

Structure (SMILES)	Potency
N#Cc1cn([C@@H]2O[C@H](CO)[C@H](O)[C@@H]2O)c2ncnc(N)c12	active: 10.3 µM
O=C1Nc2ccccc2C12CCN(Cc1cccc3ccccc13)CC2	inconclusive: 7.31 µM [inhibitor, partial curve]
CC[n+]1c(-c2ccccc2)c2cc(N)ccc2c2ccc(N)cc21	inconclusive: 23.1 µM [inhibitor, partial curve, poor fit]
O=C(CCn1cccn1)N1C[C@H](c2cccc(F)c2F)[C@@H]2[C@H]1C1CCN2CC1	inactive
CCOP(=S)(OCC)Oc1ccc2c(C)c(Cl)c(=O)oc2c1	active: 6.51 µM
COc1cc2c(cc1OCc1ccccc1)NC(=O)C21CCN(Cc2nccs2)CC1	inconclusive: 18.8 µM [inhibitor, partial curve]
CC[C@H]1CN2CC[C@H]1C[C@@H]2CNC(=S)Nc1ccc(N(C)C)cc1	inactive
COc1ccc2c(c[n+](C)c3c4cc5c(cc4ccc23)OCO5)c1OC	inconclusive: 9.2 µM [inhibitor, partial curve]
CCOc1ccc2c(n1)CCNC2	inactive
COP(=S)(OC)SCN1C(=O)c2ccccc2C1=O	active: 18.4 µM
COc1cc2c(cc1OCC1CC1)NC(=O)C21CCN(c2nc(C)cnc2C)CC1	inactive
N[C@@H](Cc1ccc(Oc2cc(I)c(O)c(I)c2)c(I)c1)C(=O)O	inconclusive: 23.1 µM [inhibitor, partial curve]
Cc1cc(SCc2sc(-c3ccc(C(F)(F)F)c(F)c3)nc2C)ccc1OCC(=O)O	inconclusive: 20.6 µM [inhibitor, partial curve]
Oc1ccc2c3c1O[C@H]1c4[nH]c5c(N=C=S)cccc5c4C[C@@]4(O)[C@@H](C2)N(CC2CC2)CC[C@]314	inconclusive: 16.4 µM [inhibitor, partial curve]
O=C1c2ccccc2C(=O)C1C(=O)C(c1ccccc1)c1ccccc1	inconclusive: 23.1 µM [inhibitor, partial curve, poor fit]
COc1cc2c(cc1Oc1ccccc1)NC(=O)C21CCN(c2nc(C)cnc2C)CC1	inconclusive: 16.8 µM [inhibitor, partial curve, poor fit]
